Assay results taken from the supplement of paper PMC4967469.
pIC50: −log10 of the molar value. By IC50 is meant the dose at which the fit gives 50% viability; fits outside the tested doses are given as limits. The AUC spans the tested range (256-fold, ending at the top dose) of the same fit; the more sensitive the line, the further below 1. For some assays here: Any top dose called inferred was derived from the fitted curves, not read from the paper.

Columns and labels:
Assay in all cases: Viability of human cancer cell lines after 72 h of drug (GDSC screen)
XAV 939 = compound: Oc1nc(-c2ccc(C(F)(F)F)cc2)nc2c1CSCC2 [XAV 939]; settings: top dose 5 µM; top dose inferred
Method: (§1)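 Human cancer cell lines in 384-well plates, medium with 10% serum, drug for 72 h over a 256-fold dose range (nine 2-fold or five 4-fold steps up to the top dose). Adherent lines were fixed and stained with the nucleic acid dye Syto60, suspension lines read with resazurin; signal relative to control wells, capped at 0 and 100%. One two-parameter sigmoid per drug and line, fitted in a mixed model over all curves with the slope shared within a line.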

YK 4-279 = compound: COc1ccc(C(=O)CC2(O)C(=O)Nc3c(Cl)ccc(Cl)c32)cc1 [YK 4-279]; settings: top dose 10 µM
Method: as §1

Bexarotene = compound: C=C(c1ccc(C(=O)O)cc1)c1cc2c(cc1C)C(C)(C)CCC2(C)C [Bexarotene]; settings: top dose 8 µM
Method: as §1

GSK-650394 = compound: O=C(O)c1ccc(-c2c[nH]c3ncc(-c4ccccc4)cc23)cc1C1CCCC1 [GSK-650394]; settings: top dose 16 µM; top dose inferred
Method: as §1

BMS-345541 = compound: Cc1ccc2nc(NCCN)c3ncc(C)n3c2c1 [BMS-345541]; settings: top dose 16 µM
Method: as §1

AZD7762 = compound: NC(=O)Nc1cc(-c2cccc(F)c2)sc1C(=O)N[C@H]1CCCNC1 [AZD7762]; settings: top dose 2 µM
Method: as §1

Etoposide = compound: COc1cc([C@@H]2c3cc4c(cc3[C@@H](O[C@@H]3O[C@@H]5CO[C@@H](C)O[C@H]5[C@H](O)[C@H]3O)[C@H]3COC(=O)[C@H]23)OCO4)cc(OC)c1O [Etoposide]; settings: top dose 16 µM
Method: as §1

NPK76-II-72-1 = compound: COc1cc(C(=O)NC2CCN(C)CC2)ccc1Nc1ncc2c(n1)N(C1CCCC1)C(C)CC(=O)N2C [NPK76-II-72-1]; settings: top dose 10.24 µM; top dose inferred
Method: as §1

Row | Cell Line | AUC (XAV 939) | pIC50 (XAV 939) | AUC (YK 4-279) | pIC50 (YK 4-279) | AUC (Bexarotene) | pIC50 (Bexarotene) | AUC (GSK-650394) | pIC50 (GSK-650394) | AUC (BMS-345541) | pIC50 (BMS-345541) | AUC (AZD7762) | pIC50 (AZD7762) | AUC (Etoposide) | pIC50 (Etoposide) | AUC (NPK76-II-72-1) | pIC50 (NPK76-II-72-1)
1 | CAL-78 (chondrosarcoma, adherent) | 0.985 | < 5.30 | 0.764 | 5.38 | 0.922 | < 5.10 | 0.986 | < 4.80 | 0.974 | < 4.80 | 0.698 | 6.31 | 0.899 | < 4.80 | 0.842 | 5.06
2 | CAL-85-1 (breast, adherent) | 0.953 | < 5.30 | 0.757 | 5.36 | 0.94 | < 5.10 | 0.783 | 5.05 | 0.861 | < 4.80 | 0.864 | < 5.70 | 0.608 | – | 0.951 | < 4.99
3 | CAL-120 (breast, adherent) | 0.944 | < 5.30 | 0.777 | 5.28 | 0.949 | < 5.10 | 0.881 | < 4.80 | 0.964 | < 4.80 | 0.901 | < 5.70 | 0.784 | 5.05 | 0.792 | 5.21
4 | CAS-1 (glioma, adherent) | 0.93 | < 5.30 | 0.862 | < 5.00 | 0.935 | < 5.10 | 0.777 | 5.04 | 0.974 | < 4.80 | 0.799 | 5.86 | 0.796 | 4.96 | 0.893 | < 4.99
5 | CCF-STTG1 (glioma, adherent) | 0.987 | < 5.30 | 0.751 | 5.48 | 0.875 | 5.10 | 0.797 | 5.12 | 0.988 | < 4.80 | 0.693 | 6.36 | 0.748 | 5.28 | 0.911 | < 4.99
6 | CCK-81 (large intestine, adherent) | 0.989 | < 5.30 | 0.955 | < 5.00 | 0.969 | < 5.10 | 0.932 | < 4.80 | 0.845 | 4.98 | 0.797 | 6.06 | 0.958 | < 4.80 | 0.92 | < 4.99
7 | CESS (acute myeloid leukaemia, suspension) | 0.976 | < 5.30 | 0.637 | 5.85 | 0.953 | < 5.10 | 0.85 | 5.02 | 0.887 | 4.87 | 0.905 | < 5.70 | 0.343 | 6.40 | 0.336 | 6.62
8 | CHL-1 (melanoma, adherent) | 0.976 | < 5.30 | 0.655 | 5.79 | 0.897 | < 5.10 | 0.67 | 5.54 | 0.884 | 4.81 | 0.74 | 6.24 | 0.37 | 6.35 | 0.667 | 5.74
9 | CHSA0011 (chondrosarcoma, adherent) | 0.948 | < 5.30 | 0.862 | < 5.00 | 0.98 | < 5.10 | 0.98 | < 4.80 | 0.866 | < 4.80 | 0.706 | 6.21 | 0.972 | < 4.80 | 0.946 | < 4.99
